The whole screen tested about 220,000 compounds, of which about 5,700 (2.6%) were called active. The inconclusive results got no clear call from the source; some entries with a clear call stand among them for comparison. Calls come from the whole dose curve; as a rule, active = well fitted inhibition curve with a large enough effect; inconclusive = small, poorly fitted or top-dose-only effect; inactive = no such curve, though single readings can be large or run the other way. A potency beside an inconclusive call is a rough fit, not a confirmed value.
These compounds were tested against Lysine-specific demethylase 5B (Homo sapiens) (UniProt Q9UGL1) (assay: Primary screen for KDM5B Histone Demethylases FDH-coupled qHTS). Conditions: FDH-coupled NADH fluorescence (FDH is formaldehyde dehydrogenase); series mostly up to 57.7 µM.
UniProt Q9UGL1, sequence (Q9UGL1 whole entry, looked up): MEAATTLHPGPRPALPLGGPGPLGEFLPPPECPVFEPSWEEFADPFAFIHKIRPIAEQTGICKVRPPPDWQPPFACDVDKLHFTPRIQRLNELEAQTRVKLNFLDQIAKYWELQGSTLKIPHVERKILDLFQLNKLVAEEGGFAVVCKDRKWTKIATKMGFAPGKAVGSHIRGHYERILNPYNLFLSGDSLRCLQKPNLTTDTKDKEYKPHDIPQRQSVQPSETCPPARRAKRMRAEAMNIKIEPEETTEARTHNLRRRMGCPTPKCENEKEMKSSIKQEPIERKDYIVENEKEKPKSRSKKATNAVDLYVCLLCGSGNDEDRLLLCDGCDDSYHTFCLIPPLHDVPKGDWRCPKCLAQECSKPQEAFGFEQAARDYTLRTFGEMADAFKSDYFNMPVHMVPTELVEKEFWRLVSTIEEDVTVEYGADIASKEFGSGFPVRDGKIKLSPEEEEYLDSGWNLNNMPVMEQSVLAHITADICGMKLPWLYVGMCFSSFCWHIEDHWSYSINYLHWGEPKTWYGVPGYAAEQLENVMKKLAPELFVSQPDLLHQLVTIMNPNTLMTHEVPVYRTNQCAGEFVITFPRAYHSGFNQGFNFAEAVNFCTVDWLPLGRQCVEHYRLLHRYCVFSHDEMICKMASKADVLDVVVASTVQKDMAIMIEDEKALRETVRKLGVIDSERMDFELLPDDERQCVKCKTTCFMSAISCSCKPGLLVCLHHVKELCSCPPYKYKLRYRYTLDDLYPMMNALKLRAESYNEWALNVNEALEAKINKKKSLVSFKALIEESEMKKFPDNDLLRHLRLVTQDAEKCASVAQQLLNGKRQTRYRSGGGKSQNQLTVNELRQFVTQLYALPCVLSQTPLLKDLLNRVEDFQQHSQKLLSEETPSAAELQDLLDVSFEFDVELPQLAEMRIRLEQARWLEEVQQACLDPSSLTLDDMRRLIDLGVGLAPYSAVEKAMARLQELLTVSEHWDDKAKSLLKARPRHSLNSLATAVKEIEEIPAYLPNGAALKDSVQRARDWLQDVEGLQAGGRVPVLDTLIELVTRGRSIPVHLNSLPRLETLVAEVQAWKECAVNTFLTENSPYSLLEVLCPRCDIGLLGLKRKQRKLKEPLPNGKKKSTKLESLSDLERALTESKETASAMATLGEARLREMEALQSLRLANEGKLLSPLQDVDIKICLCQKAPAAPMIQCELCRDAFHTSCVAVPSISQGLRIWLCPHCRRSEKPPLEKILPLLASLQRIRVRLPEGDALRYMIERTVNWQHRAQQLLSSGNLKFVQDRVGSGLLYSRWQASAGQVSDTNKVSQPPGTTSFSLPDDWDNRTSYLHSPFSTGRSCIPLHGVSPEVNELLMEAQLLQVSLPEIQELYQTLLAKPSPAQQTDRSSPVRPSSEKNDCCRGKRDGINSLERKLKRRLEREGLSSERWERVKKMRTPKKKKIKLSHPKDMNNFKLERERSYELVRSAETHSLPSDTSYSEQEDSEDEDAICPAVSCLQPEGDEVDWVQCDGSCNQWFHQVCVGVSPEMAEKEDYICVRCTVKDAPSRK
Method in brief: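 Measured: NADH fluorescence change, 30 min, RT. System: KDM5BΔAP 200 nM final, H3K4me3 peptide, α-KG, Fe(II), ascorbate, NAD⁺ plus FDH, pH 7.5 HEPES. Compounds: titrated, 10 min pre-incubation with enzyme.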
Note: nearly all actives have a fitted effect of over 70% in size.
Potency is the fitted concentration of half-maximal effect; tags give direction and shape of the fitted curve.

| Compound | Potency |
| --- | --- |
| O=C(c1ccc2c(c1)OC(F)(F)O2)N1CCC(C(=O)O)(c2ccccc2)CC1 | inactive |
| CSCC(=O)Nc1ccc2n(c1=O)C[C@H]1C[C@@H]2CN(C(=O)COc2ccccc2)C1 | inconclusive: 35.5 µM [inhibitor, partial curve] |
| Cc1ccccc1CN1CCN(Cc2cccc(F)c2)CC1 | inconclusive: 2 µM [inhibitor, full curve, poor fit] |
| Cc1nc(-c2ccccc2Br)cc([C@H]2CN3CC[C@H]2C[C@@H]3CNC(=O)NC(C)C)n1 | inconclusive: 14.1 µM [inhibitor, partial curve, poor fit] |
| O=C(NC1CCCCC1)[C@H]1CN2CCC1C[C@@H]2Cn1cc(CO)nn1 (some centres undefined) | inactive |
| COc1ccc(CCNCc2ccccc2F)cc1 | inconclusive: 28.2 µM [inhibitor, single point] |
| COc1cc2c(cc1-c1cccc(NC(C)=O)c1)NC(=O)C21CCN(C(C)=O)CC1 | inconclusive: 35.5 µM [inhibitor, single point] |
| NCCCc1c[nH]c2ccccc12 | inactive |
| COc1cc(/C=C/c2nc3ccccc3c(=O)n2-c2cccc(O)c2)ccc1O | inconclusive: 25.1 µM [inhibitor, partial curve, poor fit] |
| O=C(c1onc2ccccc12)N1CCC2(CCCNC2)C1 (centres undefined) | inconclusive: 35.5 µM [inhibitor, partial curve, poor fit] |
| O=C1NCCOCCN[C@@H]2CCCC[C@H]12 | inactive |
| COCC(=O)NC[C@H]1C[C@@H]2CCN1C[C@@H]2c1cc(-c2ccccc2OC)nc(C)n1 | active: 35.5 µM |
| FC(F)(F)CN1C2CCC1CN(c1cncc(Cl)c1)C2 | inactive |
| COc1cc2c(cc1OCc1ccccc1)N(C(=O)C(C)C)CC21CCN(C)CC1 | inconclusive: 39.8 µM [inhibitor, single point] |
| O=C(c1cn(CCCCn2cc(C(=O)C(F)(F)F)c3ccccc32)c2ccccc12)C(F)(F)F | inactive |
| CCCS(=O)(=O)Nc1ccc2n(c1=O)C[C@H]1C[C@@H]2CN(C(=O)Nc2ccc(OC)cc2)C1 | inactive |
| CCc1cccc(NC(=O)CN2C(=O)CN=C(c3ccccc3F)c3cc(Cl)ccc32)c1 | inconclusive: 12.6 µM [inhibitor, partial curve, poor fit] |
| COC[C@H]1C[C@@H](NC2CCN(C)CC2)[C@H](O)[C@@H]1O | inconclusive: 35.5 µM [inhibitor, partial curve] |
| O=C1NC2(CCN(Cc3cccnc3)C2)COc2ccccc21 (centres undefined) | inconclusive: 39.8 µM [inhibitor, partial curve, poor fit] |
| c1ccc(C2=NOC3(CCCN(Cc4ccccn4)C3)C2)cc1 (centres undefined) | inconclusive: 56.2 µM [inhibitor, partial curve] |
| c1nc(N2C[C@@H](c3ccc4c(c3)OCO4)[C@@H]3[C@H]2C2CCN3CC2)c2[nH]cnc2n1 | inactive |
| N#Cc1cnn2c(C(F)F)cc(-c3ccc(F)cc3)nc12 | inconclusive: 20 µM [inhibitor, partial curve, poor fit] |
| O=C(O)COc1ccccc1/C=C1\C(=O)NC(=O)N(CCC2=CCCCC2)C1=O | inconclusive: 20 µM [inhibitor, partial curve, poor fit] |

| Compound | Potency |
| --- | --- |
| COc1cc(NC(=O)OC[C@H]2C[C@@H]3CCN2C[C@@H]3c2cc(-c3ccc(N(C)C)cc3)nc(C)n2)cc(OC)c1 | inactive |
| COc1cc2c(cc1OCc1ccccc1)N(C(=O)c1cccc(N(C)C)c1)CC21CCN(C)CC1 | inactive |
| COc1ccc(CC(=O)N2CCC3(CC2)c2nccn2-c2ccccc2CN3C)cc1 | inactive |
| COC(=O)c1nc(-c2ccc3c(n2)C(=O)C(N)=C(OC)C3=O)c(N)c(-c2ccc(OC)c(OC)c2O)c1C | inconclusive: 39.8 µM [inhibitor, partial curve, poor fit] |
| C/C=C/CN1CC2ON=C(C(=O)O)C2C1 (centres undefined) | inconclusive: 141 µM [inhibitor, partial curve, poor fit] |
| O=C(NC[C@H]1C[C@@H]2CCN1C[C@@H]2CN1CCCC1)c1ccco1 | inconclusive: 28.2 µM [inhibitor, partial curve] |
| CC(=O)Nc1ccc(-c2ccc(=O)n3c2[C@@H]2C[C@@H](CN(C(=O)C(C)(C)C)C2)C3)cc1 | inconclusive: 39.8 µM [inhibitor, single point] |
| Cc1nc(-c2ccco2)cc([C@H]2CN3CC[C@H]2C[C@@H]3CNS(=O)(=O)c2cccs2)n1 | inconclusive: 31.6 µM [inhibitor, single point] |
| NC(=O)C1=NO[C@@H]2CN(CC3CCCCC3)C[C@H]12 | inactive |
| CCOc1ccc(CN(CCc2ccc3c(c2)OCO3)Cc2cc(OC)ccc2O)cc1 | inconclusive: 14.1 µM [inhibitor, partial curve, poor fit] |
| c1cncc(-c2ccc3n2Cc2cnnn2-c2ccccc2-3)c1 | inconclusive: 25.1 µM [inhibitor, partial curve, poor fit] |
| Cn1nc(CN2CCOCC(CO)C2)c2c(Cl)cccc21 (centres undefined) | inactive |
| O=[S+]1([O-])NC2(CCN(Cc3ccccn3)C2)CNc2ccccc21 (centres undefined) | inconclusive: 3.98 µM [inhibitor, full curve, poor fit] |
| COc1cc2c(cc1Oc1ccccc1)NC(=O)C21CCN(c2nc(C)cnc2C)CC1 | active: 31.6 µM |
| Cc1nc(-c2cccs2)cc([C@H]2CN3CC[C@H]2C[C@@H]3CNC(=O)c2ccc(C(F)(F)F)cc2)n1 | inactive |
| Cc1ccc(NC(=O)N(Cc2ccc3c(c2)OCO3)C2CCN(Cc3ccccc3)CC2)cc1C | inconclusive: 35.5 µM [inhibitor, single point] |
| Cc1nc(-c2ccco2)cc([C@H]2CN3CC[C@H]2C[C@@H]3CNCC2CCCCC2)n1 | inactive |
| COc1cccc(CCNCc2ccc(OC)c3ccccc23)c1 | inconclusive: 25.1 µM [inhibitor, partial curve, poor fit] |
| Cc1ccc2nc(C(=O)N3CC4CC(C3)c3cccc(=O)n3C4)cn2c1 (centres undefined) | inconclusive: 7.08 µM [inhibitor, single point] |
| O=C(C1CCCCC1)N1C[C@@H]2C[C@H](C1)c1c(/C=C/c3ccc(Cl)cc3)ccc(=O)n1C2 | active: 25.1 µM |
| NCCc1cccs1 | inactive |
| ClCCN1CCOCC1 | inactive |
| CCN1CCN(C(=O)COc2ccc3c(=O)c(-c4ccccc4)coc3c2)CC1 | inactive |

| Compound | Potency |
| --- | --- |
| O=C1CC2CCN(CC3CCNC3)CC2CCN1 (centres undefined) | inconclusive: 141 µM [inhibitor, partial curve, poor fit] |
| O=C1NC(=O)N(Cc2ccc(F)cc2)C(=O)/C1=C\c1ccoc1 | inconclusive: 39.8 µM [inhibitor, single point] |
| CC(C)(C)c1cc2c(c(C(C)(C)C)c1)Oc1cc(C#N)c(C#N)cc1O2 | inactive |
| O=C(CSC1c2ccccc2Sc2ccccc21)Nc1ccc(C(=O)O)cc1 | inactive |
| COc1ccc(C(=O)N2CCC3(CC2)c2nccn2-c2ccccc2CN3C)c(OC)n1 | inactive |
| Cn1nc2n(c1=O)CCC(NC(=O)c1nn(C)c3ccccc13)CC2 (centres undefined) | active: 17.8 µM |
| Cc1cc([N+](=O)[O-])c2ccccc2[n+]1[O-] | inconclusive: 22.4 µM [inhibitor, partial curve, poor fit] |
| Cc1ncc2c(n1)C[C@@H]1CC[C@H]2N1C(=O)Nc1ccc(C)c(C)c1 | inactive |
| CN1C(=O)C(Cc2ccc(OCc3ccccc3)cc2)C(=O)N(C)C1=O | inconclusive: 20 µM [inhibitor, partial curve, poor fit] |
| COc1ccc(CNC(=O)C(Cl)(Cl)Cl)cc1 | inactive |
| COc1ccc(OCC(=O)N2CCN(Cc3cccc(OC)c3OC)CC2)cc1 | inconclusive: 14.1 µM [inhibitor, partial curve, poor fit] |
| OCC1CN(C2CCC2)CC12CCN(Cc1ccncc1)CC2 (centres undefined) | inconclusive: 12.6 µM [inhibitor, partial curve, poor fit] |
| O=C1N(c2ccccn2)C[C@H]2CN(CC3CC3)CCN12 | inconclusive: 35.5 µM [inhibitor, single point] |
| CN1Cc2ccccc2-n2ccnc2C12CCN(C(=O)c1cccc(C(F)(F)F)c1)CC2 | inactive |
| C=C[C@H]1CN2CC[C@H]1C[C@@H]2CNCc1ccc(C(F)(F)F)cc1 | inactive |
| CNc1ncc(C(=O)N2C[C@H]3COc4ccccc4C[C@@]3(C(=O)O)C2)cn1 | inconclusive: 20 µM [inhibitor, single point] |
| Cc1cccc(CC(=O)N2CCN(Cc3ccc(=O)n(C)c3)CC2)c1 | inconclusive: 12.6 µM [inhibitor, partial curve] |
| O=C(Nc1ccc2n(c1=O)C[C@H]1C[C@@H]2CN(C(=O)COc2ccccc2)C1)c1cccs1 | inconclusive: 25.1 µM [inhibitor, single point] |
| CCCS(=O)(=O)NC[C@H]1C[C@@H]2CCN1C[C@@H]2c1cc(-c2ccc(OC)c(OC)c2)nc(C)n1 | active: 25.1 µM |
| COc1cc2c(cc1OC1CCCC1)NC(=O)C21CCN(c2ccc(C#N)cn2)CC1 | active: 31.6 µM |
| CCC(=O)N1[C@H]2CC[C@@H]1c1cnc(-c3ccc(F)cc3)nc1C2 | inactive |
| CC(=O)Nc1ccc(-c2ccc(=O)n3c2[C@@H]2C[C@@H](CN(C(=O)c4ccccc4)C2)C3)cc1 | inconclusive: 35.5 µM [inhibitor, single point] |
| CC(=O)Nc1ccc2n(c1=O)C[C@H]1C[C@@H]2CN(C(=O)c2ccccn2)C1 | inconclusive: 31.6 µM [inhibitor, partial curve, poor fit] |
